# Measured values reported in the supplement of paper PMC10037445.
# In all, about 2,900 compounds were measured (“IRF Lucia reporter activity, fold change vs agonist alone”: median about 0.9, highest 2% from about 2.8 on). The list shows a part of the results.
# Columns and labels:
# [1] = system: RAW-Dual; assay: IRF Lucia reporter activity, fold change vs agonist alone; cytotoxicity flag (confluency mask): not cytotoxic; higher = enhanced IRF activity
# Method in brief: (§1)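 RAW-Dual macrophages were seeded in DMEM at 50,000 cells/well in 384-well plates, given 50 nL of library stock by pin tool, and given a PRR agonist 1 h later. Plates were held at 37 °C, 5% CO2 for 20 hours, after which supernatant was read for IRF by QuantiLuc luminescence and for NF-κB by QuantiBlue absorbance at 620 nm. Reporter activity is expressed as fold change over wells that received agonist alone. A well was called cytotoxic when IncuCyte confluency fell below 70% of agonist controls in both mask sets.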
# [2] = system: RAW-Dual; assay: IRF Lucia reporter activity, fold change vs agonist alone; higher = enhanced IRF activity; conditions: agonist: MPLA (TLR4) […]
# Method in brief: as §1
# [3] = system: RAW-Dual; assay: IRF Lucia reporter activity, fold change vs agonist alone; cytotoxicity flag (confluency mask): cytotoxic (confluency <70% of control); higher = enhanced IRF activity
# Method in brief: as §1
# [4] = agonist: 3'3'-cGAMP (STING) 10 ug/mL
# [5] = library stock concentration (final ~1000-fold dilution): 10 mM, cytotoxicity flag (confluency mask): not cytotoxic
# [6] = library stock concentration (final ~1000-fold dilution): 10 mM, cytotoxicity flag (confluency mask): cytotoxic (confluency <70% of control)
smiles,measurement,setting,value
CCOC(=O)CCNc1cc(N2CCc3ccccc3CC2)nc(-c2ccccn2)n1.Cl (library stock concentration (final ~1000-fold dilution): 10 mM),IRF Lucia reporter activity,[1]; [4],1.03
same,IRF Lucia reporter activity,[1]; agonist: LPS (TLR4) 0.1 ug/mL,1.04
O=C(O)CCC(O)C(=O)O (stereo unspecified) (library stock concentration (final ~1000-fold dilution): 10 mM water),IRF Lucia reporter activity,[1]; [4],1.24
same,IRF Lucia reporter activity,[1]; agonist: LPS (TLR4) 0.1 ug/mL,0.916
CC1=C(C(=O)OCCN(Cc2ccccc2)c2ccccc2)C(c2cccc([N+](=O)[O-])c2)C(P2(=O)OCC(C)(C)CO2)=C(C)N1 (stereo unspecified) (library stock concentration (final ~1000-fold dilution): 10 mM),IRF Lucia reporter activity,[1]; [4],0.719
same,IRF Lucia reporter activity,[1]; agonist: LPS (TLR4) 0.1 ug/mL,1.23
CC1=C(C(=O)OCCN(Cc2ccccc2)c2ccccc2)C(c2cccc([N+](=O)[O-])c2)C(P2(=O)OCC(C)(C)CO2)=C(C)N1 (stereo unspecified),IRF Lucia reporter activity,[2]; [5],0.768
CCCNS(=O)(=O)Nc1ncnc(OCCOc2ncc(Br)cn2)c1-c1ccc(Br)cc1 (library stock concentration (final ~1000-fold dilution): 10 mM),IRF Lucia reporter activity,[1]; [4],0.396
same,IRF Lucia reporter activity,[1]; agonist: LPS (TLR4) 0.1 ug/mL,0.362
COc1c(O)cc(O)c2c(=O)cc(-c3ccccc3)oc12,IRF Lucia reporter activity,[2]; [5],0.708
COc1c(O)cc(O)c2c(=O)cc(-c3ccccc3)oc12 (library stock concentration (final ~1000-fold dilution): 10 mM),IRF Lucia reporter activity,[1]; [4],0.682
same,IRF Lucia reporter activity,[1]; agonist: LPS (TLR4) 0.1 ug/mL,0.768
Cc1ccc(NC(=S)NNc2c([N+](=O)[O-])cc(C(F)(F)F)cc2[N+](=O)[O-])cc1Cl (library stock concentration (final ~1000-fold dilution): 10 mM),IRF Lucia reporter activity,[1]; [4],0.0347
same,IRF Lucia reporter activity,[1]; agonist: LPS (TLR4) 0.1 ug/mL,0.808
Nc1ccc(S(N)(=O)=O)cc1,IRF Lucia reporter activity,[2]; [5],0.943
Nc1ccc(S(N)(=O)=O)cc1 (library stock concentration (final ~1000-fold dilution): 10 mM),IRF Lucia reporter activity,[1]; [4],1.02
same,IRF Lucia reporter activity,[1]; agonist: LPS (TLR4) 0.1 ug/mL,0.951
O=C(CCN1CCN(C(=O)OCc2cc(Cl)cc(Cl)c2)CC1)c1ccc2[nH]c(=O)oc2c1 (library stock concentration (final ~1000-fold dilution): 10 mM),IRF Lucia reporter activity,[1]; [4],0.456
same,IRF Lucia reporter activity,[1]; agonist: LPS (TLR4) 0.1 ug/mL,0.499
Cc1c(-c2ccc(C(N)=O)c3[nH]c4cc(C(C)(C)O)ccc4c23)cccc1-n1cnc2ccccc2c1=O (library stock concentration (final ~1000-fold dilution): 10 mM),IRF Lucia reporter activity,[1]; [4],0.0171
same,IRF Lucia reporter activity,[1]; agonist: LPS (TLR4) 0.1 ug/mL,0.0247
COc1ccc(-c2oc3c(CC=C(C)C)c(O)cc(O)c3c(=O)c2O)cc1 (library stock concentration (final ~1000-fold dilution): 10 mM),IRF Lucia reporter activity,[1]; [4],1.06
same,IRF Lucia reporter activity,[1]; agonist: LPS (TLR4) 0.1 ug/mL,0.864
CCCCNc1ncc(-c2ccc(CN3CCOCC3)cn2)c(NC2CCC(O)CC2)n1 (stereo unspecified) (library stock concentration (final ~1000-fold dilution): 2 mM),IRF Lucia reporter activity,[1]; [4],0.687
same,IRF Lucia reporter activity,[1]; agonist: LPS (TLR4) 0.1 ug/mL,0.485
CCCCNc1ncc(-c2ccc(CN3CCOCC3)cn2)c(NC2CCC(O)CC2)n1 (stereo unspecified),IRF Lucia reporter activity,"[2]; library stock concentration (final ~1000-fold dilution): 2 mM, cytotoxicity flag (confluency mask): not cytotoxic",0.982
CS(=O)(=O)O.O=C(Nc1cccc(Cl)c1)Nc1ncc(CCNc2ncnc3ccsc23)s1 (library stock concentration (final ~1000-fold dilution): 10 mM),IRF Lucia reporter activity,[3]; [4],0.193
same,IRF Lucia reporter activity,[3]; agonist: LPS (TLR4) 0.1 ug/mL,0.396
CS(=O)(=O)O.O=C(Nc1cccc(Cl)c1)Nc1ncc(CCNc2ncnc3ccsc23)s1,IRF Lucia reporter activity,[2]; [6],0.627
Br.COc1ccc2c3c1OC1CC(O)C=CC31CCN(C)C2 (stereo unspecified),IRF Lucia reporter activity,"[2]; library stock concentration (final ~1000-fold dilution): 10 mM water, cytotoxicity flag (confluency mask): not cytotoxic",1.08
Br.COc1ccc2c3c1OC1CC(O)C=CC31CCN(C)C2 (stereo unspecified) (library stock concentration (final ~1000-fold dilution): 10 mM water),IRF Lucia reporter activity,[1]; [4],0.816
same,IRF Lucia reporter activity,[1]; agonist: LPS (TLR4) 0.1 ug/mL,0.47
CN(C(=O)n1cnc(-c2ccc[n+]([O-])c2)c1)C1CCCCC1,IRF Lucia reporter activity,[2]; [5],0.99
CN(C(=O)n1cnc(-c2ccc[n+]([O-])c2)c1)C1CCCCC1 (library stock concentration (final ~1000-fold dilution): 10 mM),IRF Lucia reporter activity,[1]; [4],0.972
same,IRF Lucia reporter activity,[1]; agonist: LPS (TLR4) 0.1 ug/mL,0.748
CC(CN1CC(=O)NC(=O)C1)N1CC(=O)NC(=O)C1.Cl (stereo unspecified),IRF Lucia reporter activity,[2]; [5],1
CC(CN1CC(=O)NC(=O)C1)N1CC(=O)NC(=O)C1.Cl (stereo unspecified) (library stock concentration (final ~1000-fold dilution): 10 mM),IRF Lucia reporter activity,[1]; [4],0.912
same,IRF Lucia reporter activity,[1]; agonist: LPS (TLR4) 0.1 ug/mL,0.896
Nc1nc(Nc2ccc(S(N)(=O)=O)cc2)nn1C(=O)c1c(F)cccc1F,IRF Lucia reporter activity,[2]; [6],0.336
Nc1nc(Nc2ccc(S(N)(=O)=O)cc2)nn1C(=O)c1c(F)cccc1F (library stock concentration (final ~1000-fold dilution): 10 mM),IRF Lucia reporter activity,[3]; [4],0.146
same,IRF Lucia reporter activity,[3]; agonist: LPS (TLR4) 0.1 ug/mL,0.259
Cc1cc(N2CC(C)NC(C)C2)ncc1-c1ccc(-c2nc3c(ccn3C)c(=O)[nH]2)cc1 (stereo unspecified) (library stock concentration (final ~1000-fold dilution): 10 mM),IRF Lucia reporter activity,[1]; [4],0.527
same,IRF Lucia reporter activity,[1]; agonist: LPS (TLR4) 0.1 ug/mL,1.29
NC(=O)CCCSc1nc(N)nc(-c2c(Cl)cc3c4c(cccc24)COC3)n1,IRF Lucia reporter activity,[2]; [5],0.866
NC(=O)CCCSc1nc(N)nc(-c2c(Cl)cc3c4c(cccc24)COC3)n1 (library stock concentration (final ~1000-fold dilution): 10 mM),IRF Lucia reporter activity,[1]; [4],0.88
same,IRF Lucia reporter activity,[1]; agonist: LPS (TLR4) 0.1 ug/mL,1.26
